Laboratory results: publication PMC4336329 (PLoS ONE, 2015)
The campaign covered roughly 310,000 compounds. About 2,200 (0.71%) showed an effect of 50% or more. The effect is printed as a negative number. The list shows a part of the results.

The compounds below were run against human ether-à-go-go-related gene (hERG) potassium channel (human, UniProt Q12809) (assay: primary screen, population patch clamp on CHO cells stably expressing hERG).
Chain of human ether-à-go-go-related gene (hERG) potassium channel (Q12809 whole entry, looked up): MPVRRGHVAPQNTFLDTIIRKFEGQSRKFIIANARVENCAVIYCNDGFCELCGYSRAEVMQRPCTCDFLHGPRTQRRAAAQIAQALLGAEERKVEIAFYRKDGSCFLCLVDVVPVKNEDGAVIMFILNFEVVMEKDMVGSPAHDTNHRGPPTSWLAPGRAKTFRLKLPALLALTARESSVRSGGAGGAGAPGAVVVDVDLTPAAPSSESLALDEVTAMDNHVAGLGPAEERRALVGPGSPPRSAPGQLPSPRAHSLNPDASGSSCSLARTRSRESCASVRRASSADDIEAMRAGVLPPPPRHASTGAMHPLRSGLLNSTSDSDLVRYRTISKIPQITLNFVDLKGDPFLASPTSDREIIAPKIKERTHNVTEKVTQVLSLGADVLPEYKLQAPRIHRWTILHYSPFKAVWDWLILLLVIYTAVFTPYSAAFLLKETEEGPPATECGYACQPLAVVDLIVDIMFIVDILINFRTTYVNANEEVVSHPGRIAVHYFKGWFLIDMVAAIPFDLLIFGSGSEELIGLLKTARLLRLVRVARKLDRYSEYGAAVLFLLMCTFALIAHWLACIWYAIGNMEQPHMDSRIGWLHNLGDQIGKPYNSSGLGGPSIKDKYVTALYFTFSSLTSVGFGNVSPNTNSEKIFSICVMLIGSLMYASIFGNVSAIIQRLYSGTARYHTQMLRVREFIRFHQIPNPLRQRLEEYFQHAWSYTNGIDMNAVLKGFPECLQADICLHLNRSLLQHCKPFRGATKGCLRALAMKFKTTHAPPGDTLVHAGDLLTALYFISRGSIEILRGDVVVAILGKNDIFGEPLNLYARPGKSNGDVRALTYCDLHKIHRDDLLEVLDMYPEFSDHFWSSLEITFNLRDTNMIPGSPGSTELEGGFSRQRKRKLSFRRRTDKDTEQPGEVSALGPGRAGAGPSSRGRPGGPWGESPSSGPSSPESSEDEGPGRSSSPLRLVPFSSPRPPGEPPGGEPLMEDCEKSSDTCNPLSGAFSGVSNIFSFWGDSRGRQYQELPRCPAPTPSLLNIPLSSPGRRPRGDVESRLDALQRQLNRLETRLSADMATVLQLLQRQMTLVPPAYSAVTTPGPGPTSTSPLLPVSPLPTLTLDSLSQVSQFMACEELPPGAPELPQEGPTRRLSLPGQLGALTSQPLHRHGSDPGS

Row | SMILES | hERG current change (%, negative = inhibition) at 1uM
1 | CC1CCCN(C(=O)CSc2nnc3ccccn23)C1 (stereo not shown) | 8.63%
2 | CC(=O)Nc1nc(SCC(=O)Nc2nnc(C)s2)[nH]c(=O)c1NC(=O)c1cccs1 | 5.04%
3 | COc1ccc2oc(C(=O)OC(C)C(=O)Nc3ccc(N4CCOCC4)cc3)c(C)c2c1 (stereo not shown) | 5.38%
4 | CCC(C(=O)NC1CCCC1)N(Cc1ccccc1Cl)C(=O)c1snc(C(N)=O)c1N (stereo not shown) | 8.96%
5 | CC(=O)c1ccc(CC2SC(N)=NC2=O)cc1 (stereo not shown) | 12%
6 | O=C(CCS(=O)(=O)c1ccc(Br)cc1)NCCc1ccc(Cl)cc1 | 11.2%
7 | CCCCOCCCNCC(=O)Nc1ccc(S(N)(=O)=O)cc1 | 14.7%
8 | O=C(N/N=C/c1ccc([N+](=O)[O-])cc1)c1cc(C2CC2)nc2ccccc12 | 10.7%
9 | CCNc1oc(COc2cccc(C)c2)nc1C#N | 8.81%
10 | CCc1ccc2oc(=O)cc(CN3CCCCC3)c2c1 | 12.3%
11 | O=C(CN1C(=O)NC(c2ccccc2)(c2ccccc2)C1=O)c1c[nH]c2ccccc12 | 11.3%
12 | CSc1cc(-c2ccc(Cl)cc2)c(C(=O)NC(C)C)s1 | 7.57%
13 | Cc1c(C(C)(C(=O)O)c2c(C)n(C)c3ccccc23)c2ccccc2n1C | 7.93%
14 | Cc1cccc(C(=O)OCc2cnc(Cl)s2)c1 | 3.47%
15 | COc1cc2c(cc1NC(=O)CN1CCN(S(=O)(=O)c3ccccc3F)CC1)oc1ccccc12 | 10.2%
16 | CC(C)(CNC(=O)CO/N=C1/C=C2CCC3C(C(O)C[C@@]4(C)C3CC[C@]4(O)C(=O)CO)[C@@]2(C)CC1)C(O)C(=O)O (stereo partly shown) | 12.7%
17 | CCOC(=O)c1cc(=O)c2ccc(OCc3ccccc3)cc2o1 | 5.96%
18 | CS(=O)(=O)N1CCN(c2ccc([N+](=O)[O-])c(N3CCOCC3)c2)CC1 | 17.5%
19 | CCN(CC)S(=O)(=O)c1ccc(NC(=O)CN(c2cccc(C)c2)S(C)(=O)=O)cc1 | 14%
20 | O=S(=O)(NCC1CCCO1)c1cc(Cl)ccc1Br (stereo not shown) | 6.78%
21 | Cn1ccc(NS(=O)(=O)c2cc(Br)ccc2Br)n1 | 1.58%
22 | CCOc1cc2sc(N3CCC(C(=O)NCCCN4CCCC4=O)CC3)nc2cc1Br | -4.54%

Row | SMILES | hERG current change (%, negative = inhibition) at 1uM
23 | CC1=C(C(=O)OC2CCCCC2)C(c2ccco2)C2=C(CC(C)(C)CC2=O)N1 (stereo not shown) | 5.89%
24 | COC(=O)c1ccccc1NC(=O)CN1C(=O)CSC1=O | 1.49%
25 | CN(Cc1ccccc1)C(=O)c1cccc(N2C(=O)NC3CC2(C)Oc2ccccc23)c1 (stereo not shown) | 6.79%
26 | O=C(COc1ccccc1)NCc1nnc2c3ccccc3c(-c3ccccc3)nn12 | -12.4%
27 | O=C(O)CC1S/C(=N/N=C/c2ccc(-c3ccc(Cl)c([N+](=O)[O-])c3)o2)NC1=O (stereo not shown) | 15.9%
28 | CC(=O)c1ccc(Cc2ncc(C(F)(F)F)cc2Cl)s1 | 6.83%
29 | CCOC(=O)[C@@H]1[C@H]2COc3cc(OC)ccc3[C@H]2N2C(=O)N(c3ccc(C(F)(F)F)cc3)C(=O)[C@@]12C | 0.102%
30 | Cc1cccn2c(CNCCCOc3cccnc3)c(C(=O)N3CCOCC3)nc12 | 0.598%
31 | CCCCN(C(=O)C1CC1)C1CCS(=O)(=O)C1 (stereo not shown) | -3.22%
32 | Cc1[nH]c2c(Br)cccc2c1[C@H]1[C@@H](CC#N)C1(C)C | 9.26%
33 | O=C(O)CC(Sc1n[nH]c(=S)s1)C(=O)O (stereo not shown) | 11.5%
34 | CC(C(=O)NCc1ccc2c(c1)OCO2)N(c1ccccc1)S(C)(=O)=O (stereo not shown) | 6.39%
35 | Cc1c(NC(=O)c2ccc(Cl)c(S(=O)(=O)N3CCOCC3)c2)c(=O)n(-c2ccccc2)n1C | 13.8%
36 | CCn1c(=O)c(C(=O)NCc2ccc3c(c2)OCO3)c(O)c2ccccc21 | 12.6%
37 | O=C(N/N=C/c1cccc([N+](=O)[O-])c1)c1ccc2c(c1)OCCO2 | 10.7%
38 | CNCc1nc2ccccc2[nH]1.Cl | 14.6%
39 | COc1ccc(CCNC(=O)C2CCN(C(=O)c3ccc(C(C)(C)C)cc3)CC2)cc1OC | 14.9%
40 | CN(CC(O)Cn1c2ccccc2c2ccccc21)S(C)(=O)=O (stereo not shown) | 10.5%
41 | COc1ccc(NS(=O)(=O)NC(=O)c2c[nH]c3ccccc23)cc1 | 9.58%
42 | O=S(=O)(c1ccccc1)N1N=C(c2ccccc2)CC1c1ccco1 (stereo not shown) | 15.9%
43 | Nc1ccc(Cl)c(S(=O)(=O)Nc2cccc(Cl)c2)c1 | 4.24%
44 | CC(C)N(C(=O)CN1C(=O)NC(c2ccccc2)(c2ccccc2)C1=O)C(C)C | 9.86%

Row | SMILES | hERG current change (%, negative = inhibition) at 1uM
45 | NN(Cc1ccccc1)C(=S)Nc1ccc(Cl)c(Cl)c1 | 12%
46 | Cc1nn(Cc2ccccc2)c(Cl)c1/C=C1\NC(=S)NC1=O | 10.6%
47 | O=C(c1cc2cc(F)ccc2[nH]1)N1CCc2ccccc21 | 11%
48 | Cc1cc(C)nc(SCCCNCc2c(F)cccc2Cl)n1.Cl | 9.75%
49 | CC1CCCCN1C(=O)c1ccc(COc2ccc([N+](=O)[O-])cc2)o1 (stereo not shown) | -18.9%
50 | CC(=O)N1CCN(c2ccc([N+](=O)[O-])cc2)CC1 | -26%
51 | Cc1ccccc1NC(=S)N(C)CCc1ccccn1 | 13.2%
52 | O=C(NCc1ccco1)c1cc(-c2cccnc2)nc2ccc(Cl)cc12 | -1.37%
53 | O=C(Nc1cccc2ccccc12)c1cc2c(cc1Br)OCO2 | -1.57%
54 | CCN1CCN(c2cc3c(nn2)Oc2ccccc2N3C)CC1 | -6.62%
55 | CN1CCCN(C(=O)c2cccc(Cl)c2)CC1 | 7.89%
56 | O=S(=O)(Nc1ccc(Cl)cn1)c1cccs1 | 11.9%
57 | Cc1ccc(CN2CCN(/N=C/c3ccc(C(F)(F)F)cc3)CC2)c(C)c1 | 4.31%
58 | COc1ccc(-c2nc(CS(=O)(=O)CC(=O)NC3CCCCCC3)c(C)o2)cc1 | 8.16%
59 | COc1cc2c(cc1OC)C(c1cc3ccccc3oc1=O)=NC(C)(C)C2 | 12.1%
60 | O=C(Nc1ccc(N2CCCC2=O)cc1)c1cncc(Br)c1 | 16.5%
61 | CC(=O)OCC1O[C@@H](O[C@@H]2C[C@H]3C(C)(C)[C@H](OC(C)=O)CC[C@]3(C)[C@H]3CC[C@]45C[C@]4(CC[C@H]5[C@@H](C)C[C@@H](O)[C@H](O)C(C)(C)O)[C@@]32C)[C@H](O)[C@@H](O)[C@@H]1O (stereo partly shown) | 11.1%
62 | COc1cccc(OC)c1C(=O)NC(=S)N1C[C@H]2C[C@H](C1)c1cccc(=O)n1C2 | -1.32%
63 | Cc1cc(NC(=O)c2cc(S(=O)(=O)N3CCCCC3)ccc2C)n(-c2ccccn2)n1 | -2.46%
64 | CC1(C)CC[C@]2(C)CC[C@]3(C)C4C[C@@H]5OO[C@@]6(O5)C(CCCC6(C)C)[C@]4(C)CC[C@@]3(C)C2C1 (stereo partly shown) | 10.8%
65 | COc1ccc(C(=O)OCC(=O)NC2CC2)cc1[N+](=O)[O-] | 12.6%
66 | O=C(COC(=O)c1ccccc1OC(F)F)Nc1ccc(N2CCCCC2)cc1 | 1.28%

Row | SMILES | hERG current change (%, negative = inhibition) at 1uM
67 | COc1cccc(NC(=O)CN(C)C(=O)c2sc3cc(Cl)ccc3c2Cl)c1 | 11%
68 | CCC(=O)Nc1cccc(NC(=S)NC(=O)c2cccc(C)c2)c1 | 13.9%
69 | COc1ccccc1N1CCN(C(=O)COc2cc(C)ccc2C)CC1 | -7.28%
70 | CCN(CC)c1ccc(-c2nc3cnccc3n2C)cc1 | -2.66%
71 | CCNC(=S)NNC(=O)c1ccccc1Cl | 15.9%
72 | C[C@H](NC(=O)c1nc[nH]c1C(=O)N[C@@H](CCCC[NH3+])C(=O)OC(C)(C)C)C(=O)OC(C)(C)C.[Cl-] | 9.38%
73 | COc1ccc(CCNS(=O)(=O)c2cn(C)nc2C)cc1OC | 11.3%
74 | O=C(CSc1nc(-c2ccc(F)cc2)cs1)N1CCc2ccccc21 | 11%
75 | CCOC(=O)c1sc2ccccc2c1OC(=O)c1ccc(C)cc1 | 8.48%
76 | CCOC(=O)c1nc(Nc2ccc(C(=O)OC)cc2)c2ccccc2n1 | 8.79%
77 | CCn1c(/C=C2/C(=O)N(C)c3ccccc32)nc2ccccc2c1=O | 8.81%
78 | O=C(Cn1cccc1C(=O)c1ccccc1)NCc1ccc(F)cc1 | 7.48%
79 | COC(=O)Cc1c(OC)ccn(CCc2c[nH]c3ccccc23)c1=O | 11.5%
80 | Cc1ccc(S(=O)(=O)N2CCN(C(=O)COC(=O)c3cc(C)oc3C)CC2)cc1 | 10.9%
81 | c1ccc2c(c1)OCC(c1csc3ncnc(N4CCCC4)c13)O2 (stereo not shown) | 13.3%
82 | CNc1ccc(C(O)(C(F)(F)F)C(F)(F)F)cc1C(O)(C(F)(F)F)C(F)(F)F | 12.9%
83 | COc1ccc(CNC(=O)C(NC(C)=O)C(C)C)cc1OC (stereo not shown) | 10.9%
84 | O=C(O)c1cc2ccc3cccc4ccc(c1)c2c34 | 1.08%
85 | O=C(Cc1n[nH]c(=O)c2ccccc12)OCC(=O)N(Cc1ccccc1)Cc1ccccc1 | 2.78%
